System: Strongyloides stercoralis
Assay: Strongyloides stercoralis L3 infection of NSG mice with or without MPA, treatment, counts of adult worms, L1 and L3
Settings: 5000 S. stercoralis L3 SC
Excerpt: Strongyloides stercoralis (threadworm) is a human pathogenic parasitic roundworm that causes the disease strongyloidiasis. The adult parasitic stage lives in tunnels in the mucosa of the small intestine. S. stercoralis has been reported in other mammals, including cats and dogs. S. stercoralis infects an estimated 100 million people. Its ability to autoinfect its host enables it to persist for decades undetected and to progress to a potentially fatal hyperinfection that often is induced by glucocorticoid treatment. The mouse model described herein recapitulates all forms of human strongyloidiasis.
NSG mice infected by subcutaneous injection with 5000 S. stercoralis L3 larvae, either with or without MPA. Mice were treated with 2.5 mg/kg EMO or 3 mg/kg IVM on days 1, 15, and 30 post-injection. Adult worms, L1 larvae, or L3 larvae were counted in the mice at 6 weeks post-injection.

SMILES | Intestinal infection: adult worms and L1 larvae (2.5 mg/kg on days 1, 15, and 30, 6 weeks post-injection) | Intestinal infection: adult worms and L1 larvae (3 mg/kg on days 1, 15, and 30, 6 weeks post-injection)
CC(C)C[C@H]1C(=O)O[C@H](Cc2ccc(N3CCOCC3)cc2)C(=O)N(C)[C@@H](CC(C)C)C(=O)O[C@H](C)C(=O)N(C)[C@@H](CC(C)C)C(=O)O[C@H](Cc2ccc(N3CCOCC3)cc2)C(=O)N(C)[C@@H](CC(C)C)C(=O)O[C@H](C)C(=O)N1C [EMO, emodepside] | clearly controlled the intestinal infection, eliminating adult worms and L1 larvae | 
CC[C@H](C)[C@H]1O[C@]2(CC[C@@H]1C)C[C@@H]1C[C@@H](C/C=C(\C)[C@@H](O[C@H]3C[C@H](OC)[C@@H](O[C@H]4C[C@H](OC)[C@@H](O)[C@H](C)O4)[C@H](C)O3)[C@@H](C)/C=C/C=C3\CO[C@@H]4[C@H](O)C(C)=C[C@@H](C(=O)O1)[C@]34O)O2 [IVM, ivermectin] |  | clearly controlled the intestinal infection, eliminating adult worms and L1 larvae

Source: patent publication US20200011856A1, “Method for Determining the Effectiveness of Treatment for the Prevention of Heartworm Disease” (priority 2017, published 2020)
